Measurements taken from publication PMC4336329 (PLoS ONE, 2015).
Out of some 310,000 compounds screened, about 14,000 (4.5%) showed an effect of 50% or more. Effects have a minus sign here. The list shows a part of the results.

Target: human ether-à-go-go-related gene (hERG) potassium channel (human, UniProt Q12809)
Experiment: primary screen, population patch clamp on CHO cells stably expressing hERG
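Further: peak tail current of the secondary pulse compared with the same well before compound.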

Sequence of human ether-à-go-go-related gene (hERG) potassium channel (Q12809 whole entry, looked up): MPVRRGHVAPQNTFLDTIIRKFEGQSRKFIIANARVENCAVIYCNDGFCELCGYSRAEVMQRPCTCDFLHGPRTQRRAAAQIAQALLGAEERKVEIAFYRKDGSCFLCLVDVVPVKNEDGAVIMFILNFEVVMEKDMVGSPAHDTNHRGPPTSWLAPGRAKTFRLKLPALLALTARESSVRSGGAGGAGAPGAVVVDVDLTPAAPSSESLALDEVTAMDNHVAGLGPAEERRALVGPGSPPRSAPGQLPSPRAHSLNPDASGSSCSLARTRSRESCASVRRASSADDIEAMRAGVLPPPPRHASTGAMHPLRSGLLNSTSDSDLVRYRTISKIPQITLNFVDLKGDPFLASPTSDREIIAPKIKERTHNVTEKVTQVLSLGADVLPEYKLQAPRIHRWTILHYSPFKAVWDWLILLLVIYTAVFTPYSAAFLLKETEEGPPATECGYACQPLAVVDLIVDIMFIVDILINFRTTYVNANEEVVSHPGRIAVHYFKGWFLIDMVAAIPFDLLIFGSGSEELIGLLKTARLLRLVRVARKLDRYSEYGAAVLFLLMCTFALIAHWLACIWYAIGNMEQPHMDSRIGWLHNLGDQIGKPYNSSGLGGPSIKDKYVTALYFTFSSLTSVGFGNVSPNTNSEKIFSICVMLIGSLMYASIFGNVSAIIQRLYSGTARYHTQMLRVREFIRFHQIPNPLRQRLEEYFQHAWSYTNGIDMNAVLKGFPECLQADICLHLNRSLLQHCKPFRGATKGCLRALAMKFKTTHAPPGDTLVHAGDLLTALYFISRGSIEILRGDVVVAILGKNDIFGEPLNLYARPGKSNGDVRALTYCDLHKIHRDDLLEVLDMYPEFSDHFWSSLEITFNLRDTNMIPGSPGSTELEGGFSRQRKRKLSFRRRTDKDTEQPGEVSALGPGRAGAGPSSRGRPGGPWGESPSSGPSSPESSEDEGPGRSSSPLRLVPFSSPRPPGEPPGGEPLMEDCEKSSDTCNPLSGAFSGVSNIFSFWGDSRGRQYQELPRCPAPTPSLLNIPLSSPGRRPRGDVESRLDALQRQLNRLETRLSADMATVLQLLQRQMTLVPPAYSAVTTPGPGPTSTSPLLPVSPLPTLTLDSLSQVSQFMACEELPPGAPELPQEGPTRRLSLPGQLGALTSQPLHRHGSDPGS

| SMILES | hERG current change (%, negative = inhibition) at 10uM [%] |
| --- | --- |
| CC1Nc2ccccc2C(=O)N1NC(=O)c1ccc(Br)cc1 (stereo not shown) | -9.66 |
| O=C(CCNS(=O)(=O)c1ccc2[nH]c(=O)oc2c1)Nc1cccc(Br)c1 | 13 |
| Cc1ccc(S(=O)(=O)N2CCN(C(=O)C3CCCO3)CC2)cc1C (stereo not shown) | 15.6 |
| O=C1CCCC(O)=C1Sc1ccccc1C(=O)O | 9.53 |
| COc1ccc(N(C(=O)c2snc(C(N)=O)c2N)C(C(=O)NC2CCCC2)c2cc(OC)ccc2OC)cc1 (stereo not shown) | -14.4 |
| O=C(Cc1ccccc1)N1CCCC1c1ccccc1 (stereo not shown) | 6.81 |
| CC(NC(=O)c1ccc2nc[nH]c2c1)c1ccccc1 (stereo not shown) | 13.4 |
| CCOc1ccccc1N(C(=O)CNC(=O)c1ccco1)C(C(=O)NC1CCCC1)c1cccnc1 (stereo not shown) | -8.42 |
| O=C(c1cc(S(=O)(=O)N2CCCCC2)ccc1F)N1CCC2(CC1)OCCO2 | -19 |
| COc1ccc(C(=O)Nc2ccccc2C(=O)Nc2ccccc2C(=O)O)cc1 | 5.66 |
| Cc1noc(C)c1COC(=O)/C=C/c1ccccc1Cl | 17.7 |
| Cc1ccc2c(c1)C1CN(C)CCC1N2C(=O)CCCN1C(=O)c2cccc3cccc(c23)C1=O (stereo not shown) | -57.4 |
| CCN1CCN(c2ccc(S(=O)(=O)N3CCOCC3)cc2NC(=O)C(C)Oc2cccc(Cl)c2)CC1 (stereo not shown) | -70.8 |
| Cc1nc(SCc2ccc(Cl)cc2)ncc1C(=O)O | 2.06 |
| C#CCOCCOCCOCCNc1nc(N2CCN(C(=O)C([C@@H](C)CC)n3cc(C(N)COC(=O)C(F)(F)F)nn3)CC2)nc(N2CCN(C(=O)[C@H](Cc3ccc(O)cc3)n3cc(C(N)[C@H](C)CC)nn3)CC2)n1.Cl (stereo partly shown) | 25.6 |
| O=C(O)Cn1c2c(c3ccccc31)CSc1ccc(Cl)cc1-2 | 23.3 |
| O=c1c(-c2n[nH]c(=S)o2)cccn1Cc1ccccc1 | 21.2 |
| O=C(O)c1ccc2c(c1)C(=O)N(c1cccc(C(=O)/C=C/c3ccccc3)c1)C2=O | 25.9 |
| CCOC(=O)C1CCN(S(=O)(=O)c2ccc(-c3cc(C(F)(F)F)n(C)n3)s2)CC1 | -22.1 |
| COc1ccc(CCNS(=O)(=O)c2ccc(C(=O)NCc3ccco3)cc2)cc1OC | -1.93 |
| CCCOc1ncnc2c1[nH]c1ccc(OC)cc12 | 8.11 |
| COc1ccc(/C=N/NC(=O)c2c(C)nc3ccc(Cl)cn23)cc1OC | 4.79 |
| COc1ccc(Cl)cc1NC(=O)C(C)OC(=O)Cn1cc(C(F)(F)F)ccc1=O (stereo not shown) | -5.5 |
| Cc1ccc(S(=O)(=O)NNC(=S)Nc2ccc(Cl)cc2)cc1 | -4.34 |
| Cc1ccc(CNC(=O)C2CCCCN2S(=O)(=O)c2ccccc2)cc1 (stereo not shown) | -3.68 |
| COc1ccc(NC(=O)C2CC(=O)N(C)C(=Nc3ccc4c(c3)OCO4)S2)cc1 (stereo not shown) | -9.73 |
| Cc1ccc(NC(=O)NNC(=O)COc2ccc3ccccc3c2)cc1 | 20.4 |
| CC1CCCCC1NC(=O)CCN1C(=O)C2C3C=CC(C3)C2C1=O (stereo not shown) | 13 |

| SMILES | hERG current change (%, negative = inhibition) at 10uM [%] |
| --- | --- |
| COc1ccccc1CNC(=O)CSc1nnc2ccc(-c3cccnc3)nn12 | -21.9 |
| CCc1ccccc1NC(=O)C(C)n1nc([N+](=O)[O-])c(Br)c1C (stereo not shown) | 8.38 |
| CCCn1c(Nc2ccccc2)nc2ccccc21 | 4.68 |
| Cc1cc(C)c(N(C(=O)c2csnn2)C(C(=O)NC(C)(C)C)c2ccncc2)c(C)c1 (stereo not shown) | 9.01 |
| CC(C)N1CCN(Cc2c[nH]c3ccccc23)CC1CCO (stereo not shown) | 5.6 |
| CS(=O)(=O)N1CCN(c2ccc(NC(=O)c3cccnc3Cl)cc2)CC1 | 13.3 |
| CC(C)OP(=O)(OC(C)C)C(O)c1ccccc1F (stereo not shown) | 9.98 |
| COc1ccccc1N1CCN(C(=O)Cn2cnc3c2c(=O)n(C)c(=O)n3C)CC1 | 8.8 |
| Cc1ccc(NC(=O)NC(=O)N(C(C)C)S(C)(=O)=O)nc1 | -8.32 |
| O=C(Cc1ccccc1[N+](=O)[O-])N1CCN(c2ccccc2F)CC1 | 3.23 |
| Cc1sc2ncnc(NCC3(N4CCOCC4)CCCCC3)c2c1C | -71.1 |
| CC(O)CNc1nc(NCc2ccccc2)c2cnn(C)c2n1 (stereo not shown) | 16.9 |
| Cn1c(CNc2ccc(Cl)cc2)nnc1SCCN1CCCCC1 | -46.4 |
| CSCC[C@H](NC(=O)[C@@H]1Cc2ccccc2CN1)C(=O)NC1CCCCC1 | 5.97 |
| Fc1ccccc1COc1cccc2cccnc12 | 3.54 |
| COc1ccccc1NC(=S)c1ccccc1 | -2.01 |
| CCOc1ccc(C2C(C(=O)c3cccs3)=C(O)C(=O)N2Cc2cccnc2)cc1OC (stereo not shown) | 0.162 |
| COc1ccc(C2=NN(C(=O)c3cccs3)C(c3ccc(OC)cc3)C2)cc1 (stereo not shown) | 17.1 |
| CCOC(=O)c1ccc(N/C=C/C(=O)c2ccc(OC)cc2)cc1 | 13.7 |
| CC12CCC(C[N+](C)(C)C1)C2(C)C.[I-] (stereo not shown) | 15.8 |
| Cc1ccc(N(CC(=O)N2CCN(Cc3ccccc3)CC2)S(C)(=O)=O)cc1C | -7.28 |
| CC(C)OCCOc1ccc2oc(-c3ccco3)cc(=O)c2c1 | -12.9 |
| CN(CC(=O)Nc1ccccc1Cl)C(=O)CSc1nnc(N)s1 | -1.75 |
| COc1ccc(NS(=O)(=O)c2ccc(C)c(C(=O)N3CCC3)c2)cc1 | 0.971 |
| CC(O)c1nc2ccccc2n1CCCCOc1ccccc1 (stereo not shown) | 2.21 |
| Cc1cc(OC(C)C(=O)N(Cc2ccco2)C2CCS(=O)(=O)C2)ccc1Cl (stereo not shown) | -29 |
| CCc1ccc(CNC(=O)Cn2nc(-c3ccc(C)cc3)ccc2=O)cc1 | -39.2 |
